# Test results: the supplement of paper PMC8728848
# The other results are listed elsewhere or left out.
# Legend:
# Test in all cases: glycan array binding signal (z-score within array); higher = stronger binding
# Conditions in all cases: glycan notation: IUPAC condensed, linker removed
# [1] = biological target: Gal(b1-3)GlcNAc(b1-2)Man(a1-3)[Gal(b1-3)GlcNAc(b1-2)Man(a1-6)]Man(b1-4)GlcNAc(b1-4)[Fuc(a1-6)]GlcNAc
# Procedure, shortened: (§1)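 Glycan array data came from 3228 arrays in the Consortium for Functional Glycomics database, and only arrays with an available protein sequence were kept. Glycan names were put into IUPAC-condensed notation, and columns mapping to the same glycan were averaged. The binding signal is a within-array Z-score, averaged across arrays of one protein sequence run at different concentrations or buffers and across linkers. A negative Z-score can be read as non-binding.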
# [2] = biological target: Gal(b1-3)GlcNAc(b1-2)Man(a1-3)[GlcNAc(b1-4)][Gal(b1-3)GlcNAc(b1-2)Man(a1-6)]Man(b1-4)GlcNAc(b1-4)GlcNAc
# Procedure, shortened: as §1
# [3] = biological target: Gal(b1-3)GlcNAc(b1-2)[Gal(b1-3)GlcNAc(b1-6)]Man(a1-6)[Gal(b1-3)GlcNAc(b1-2)Man(a1-3)]Man(b1-4)GlcNAc(b1-4)GlcNAc
# Procedure, shortened: as §1
# [4] = biological target: Gal(b1-3)GlcNAc(b1-3)Gal(b1-3)GlcNAc
# Procedure, shortened: as §1
# [5] = biological target: Gal(b1-3)GlcNAc(b1-3)Gal(b1-4)Glc
# Procedure, shortened: as §1
# [6] = biological target: Gal(b1-3)GlcNAc(b1-3)Gal(b1-4)GlcNAc
# Procedure, shortened: as §1
# [7] = biological target: Gal(b1-3)GlcNAc(b1-3)Gal(b1-4)GlcNAc(b1-2)Man(a1-3)[Gal(b1-3)GlcNAc(b1-3)Gal(b1-4)GlcNAc(b1-2)Man(a1-6)]Man(b1-4)GlcNAc(b1-4)GlcNAc
# Procedure, shortened: as §1
# [8] = biological target: Gal(b1-3)GlcNAc(b1-3)Gal(b1-4)GlcNAc(b1-2)[Gal(b1-3)GlcNAc(b1-3)Gal(b1-4)GlcNAc(b1-6)]Man(a1-6)[Gal(b1-3)GlcNAc(b1-3)Gal(b1-4)GlcNAc(b1-2)Man(a1-3)]Man(b1-4)GlcNAc(b1-4)[Fuc(a1-6)]GlcNAc
# Procedure, shortened: as §1
# [9] = biological target: Gal(b1-3)GlcNAc(b1-3)Gal(b1-4)GlcNAc(b1-3)Gal(b1-4)GlcNAc(b1-2)[Gal(b1-3)GlcNAc(b1-3)Gal(b1-4)GlcNAc(b1-3)Gal(b1-4)GlcNAc(b1-6)]Man(a1-6)[Gal(b1-3)GlcNAc(b1-3)Gal(b1-4)GlcNAc(b1-3)Gal(b1-4)GlcNAc(b1-2)Man(a1-3)]Man(b1-4)GlcNAc(b1-4)[Fuc(a1-6)]GlcNAc
# Procedure, shortened: as §1
# [10] = biological target: Gal(b1-3)GlcNAc(b1-3)Gal(b1-4)GlcNAc(b1-6)[Gal(b1-3)GlcNAc(b1-3)]Gal(b1-4)Glc
# Procedure, shortened: as §1
# [11] = biological target: Gal(b1-3)GlcNAc(b1-3)Gal(b1-4)[Fuc(a1-3)]GlcNAc
# Procedure, shortened: as §1
# [12] = biological target: Gal(b1-3)GlcNAc(b1-3)Gal(b1-4)[Fuc(a1-3)]GlcNAc(b1-6)[Gal(b1-3)GlcNAc(b1-3)]Gal(b1-4)Glc
# Procedure, shortened: as §1
# [13] = biological target: Gal(b1-3)GlcNAc(b1-3)GalNAc
# Procedure, shortened: as §1
# [14] = biological target: Gal(b1-3)GlcNAc(b1-6)Gal(b1-4)GlcNAc
# Procedure, shortened: as §1
# [15] = biological target: Gal(b1-3)GlcNAc(b1-6)GalNAc
# Procedure, shortened: as §1
# [16] = biological target: Gal(b1-3)GlcNAc(b1-6)[Gal(b1-3)]GalNAc
# Procedure, shortened: as §1
# Gal(b1-3)GlcNAc6S = biological target: Gal(b1-3)GlcNAc6S
# Procedure, shortened: as §1
# [17] = biological target: Gal(b1-3)[Fuc(a1-4)]GlcNAc
# Procedure, shortened: as §1
# [18] = biological target: Gal(b1-3)[Fuc(a1-4)]GlcNAc(b1-2)Man
# Procedure, shortened: as §1
# [19] = biological target: Gal(b1-3)[Fuc(a1-4)]GlcNAc(b1-2)Man(a1-3)[Gal(b1-3)[Fuc(a1-4)]GlcNAc(b1-2)Man(a1-6)]Man(b1-4)GlcNAc(b1-4)[Fuc(a1-6)]GlcNAc
# Procedure, shortened: as §1
# [20] = biological target: Gal(b1-3)[Fuc(a1-4)]GlcNAc(b1-3)Gal(b1-3)[Fuc(a1-4)]GlcNAc
# Procedure, shortened: as §1
# [21] = biological target: Gal(b1-3)[Fuc(a1-4)]GlcNAc(b1-3)Gal(b1-4)[Fuc(a1-3)]GlcNAc
# Procedure, shortened: as §1
# [22] = biological target: Gal(b1-3)[Fuc(a1-4)]GlcNAc(b1-6)GalNAc
# Procedure, shortened: as §1
# [23] = biological target: Gal(b1-3)[GlcNAc(b1-6)]GalNAc
# Procedure, shortened: as §1
# [24] = biological target: Gal(b1-3)[Neu5Ac(a2-6)]GalNAc
# Procedure, shortened: as §1
# [25] = biological target: Gal(b1-3)[Neu5Ac(a2-6)]GlcNAc(b1-4)Gal(b1-4)Glc
# Procedure, shortened: as §1
# [26] = biological target: Gal(b1-3)[Neu5Ac(b2-6)]GalNAc
# Procedure, shortened: as §1
# Gal(b1-4)Gal = biological target: Gal(b1-4)Gal
# Procedure, shortened: as §1
# [27] = biological target: Gal(b1-4)GalNAc(a1-3)[Fuc(a1-2)]Gal(b1-4)GlcNAc
# Procedure, shortened: as §1
# [28] = biological target: Gal(b1-4)GalNAc(b1-3)[Fuc(a1-2)]Gal(b1-4)GlcNAc
# Procedure, shortened: as §1
binder,measurement,setting,value
"Pa IMPa (Pseudomonas aeruginosa), Q9I5W4 (protein) MSLSTTAFPSLQGENMSRSPIPRHRALLAGFCLAGALSAQAATQEEILDAALVSGDSSQLTDSHLVALRLQQQVERIRQTRTQLLDGLYQNLSQAYDPGAASMWVLPANPDNTLPFLIGDKGRVLASLSLEAGGRGLAYGTNVLTQLSGTNAAHAPLLKRAVQWLVNGDPGAATAKDFKVSVVGVDKTAALNGLKSAGLQPADAACNALTDASCASTSKLLVLGNGASAASLSATVRARLQAGLPILFVHTNGWNQSSTGQQILAGLGLQEGPYGGNYWDKDRVPSSRTRTRSVELGGAYGQDPALVQQIVDGSWRTDYDWSKCTSYVGRTTCDDVPGLSDFSKRVDVLKGALDAYNQKAQNLFALPGTTSLRLWLLWADAVRQNIRYPMDKAADTARFQETFVADAIVGYVREAGAAQKELGSYAGQRQQSMPVSGSEETLTLTLPSAQGFTAIGRMAAPGKRLSIRIEDAGQASLAVGLNTQRIGSTRLWNTRQYDRPRFLKSPDIKLQANQSVALVSPYGGLLQLVYSGATPGQTVTVKVTGAASQPFLDIQPGEDSSQAIADFIQALDADKADWLEIRSGSVEVHAKVEKVRGSIDKDYGGDVQRFIRELNEVFIDDAYTLAGFAIPNQAKTPAIQQECAARGWDCDSETLHKLPGTQHINVDQYAQCGGGCSGNPYDQTWGLNPRGWGESHELGHNLQVNRLKVYGGRSGEISNQIFPLHKDWRVLREFGQNLDDTRVNYRNAYNLIVAGRAEADPLAGVYKRLWEDPGTYALNGERMAFYTQWVHYWADLKNDPLQGWDIWTLLYLHQRQVDKSDWDANKAALGYGTYAQRPGNSGDASSTDGNDNLLLGLSWLTQRDQRPTFALWGIRTSAAAQAQVAAYGFAEQPAFFYANNRTNEYSTVKLLDMSQGSPAWPFP",glycan array binding signal (z-score),[1],-0.661
same,glycan array binding signal (z-score),[2],0.31
same,glycan array binding signal (z-score),[3],-0.438
same,glycan array binding signal (z-score),[4],-0.434
same,glycan array binding signal (z-score),[5],0.215
same,glycan array binding signal (z-score),[6],-0.303
same,glycan array binding signal (z-score),[7],0.042
same,glycan array binding signal (z-score),[8],0.004
same,glycan array binding signal (z-score),[9],-0.106
same,glycan array binding signal (z-score),[10],-0.063
same,glycan array binding signal (z-score),[11],-0.189
same,glycan array binding signal (z-score),[12],0.072
same,glycan array binding signal (z-score),[13],-0.268
same,glycan array binding signal (z-score),[14],0.734
same,glycan array binding signal (z-score),[15],-0.174
same,glycan array binding signal (z-score),[16],0.031
same,glycan array binding signal (z-score),Gal(b1-3)GlcNAc6S,-0.334
same,glycan array binding signal (z-score),[17],-0.109
same,glycan array binding signal (z-score),[18],-0.48
same,glycan array binding signal (z-score),[19],0.202
same,glycan array binding signal (z-score),[20],0.216
same,glycan array binding signal (z-score),[21],-0.165
same,glycan array binding signal (z-score),[22],0.744
same,glycan array binding signal (z-score),[23],-0.354
same,glycan array binding signal (z-score),[24],-0.295
same,glycan array binding signal (z-score),[25],0.272
same,glycan array binding signal (z-score),[26],-0.582
same,glycan array binding signal (z-score),Gal(b1-4)Gal,0.309
same,glycan array binding signal (z-score),[27],-0.544
same,glycan array binding signal (z-score),[28],0.433
